# Entries with a single value are a further part of the results.
# Experiment: Water loss as a function of temperature by TG/DTA (loss on drying, thermal transitions)
# Assay type: physicochemical
# Details: DTA signals, temperature at which the water is lost
# Text: (ii) Thermogravimetric/Differential Thermal Analysis (TG/DTA) […]
# The data listed below show the total water loss (LOD by thermogravimetry (TG)) and thermal transitions (DTA signals) show the temperature at which the water is lost.
structure (smiles),measurement,setting,value
"O=C([O-])C[C@H]1CC[C@H](c2ccc(-c3ccc(Nc4ccc(C(F)(F)F)nc4)cn3)cc2)CC1.[Na+] [Modification A, sodium salt of (4-{4-[5-(6-trifluoromethyl-pyridin-3-ylamino)-pyridin-2-yl]-phenyl}-cyclohexyl)-acetic acid]",LOD (thermal transitions),first endotherm,41 °C
same,LOD (thermal transitions),second endotherm,67 °C
"O=C([O-])C[C@H]1CC[C@H](c2ccc(-c3ccc(Nc4ccc(C(F)(F)F)nc4)cn3)cc2)CC1.[Na+] [Modification B, sodium salt of (4-{4-[5-(6-trifluoromethyl-pyridin-3-ylamino)-pyridin-2-yl]-phenyl}-cyclohexyl)-acetic acid]",LOD (thermal transitions),"listed as B, first DTA thermal transition",64.7 °C
same,LOD (thermal transitions),"listed as B, second DTA thermal transition",82.6 °C
"O=C([O-])C[C@H]1CC[C@H](c2ccc(-c3ccc(Nc4ccc(C(F)(F)F)nc4)cn3)cc2)CC1.[Na+] [Modification E, sodium salt of (4-{4-[5-(6-trifluoromethyl-pyridin-3-ylamino)-pyridin-2-yl]-phenyl}-cyclohexyl)-acetic acid]",LOD (thermal transitions),first DTA thermal transition (water loss),52.0 °C
same,LOD (thermal transitions),second DTA thermal transition (water loss),69.6 °C
"O=C([O-])C[C@H]1CC[C@H](c2ccc(-c3ccc(Nc4ccc(C(F)(F)F)nc4)cn3)cc2)CC1.[Na+] [Modification I, sodium salt of (4-{4-[5-(6-trifluoromethyl-pyridin-3-ylamino)-pyridin-2-yl]-phenyl}-cyclohexyl)-acetic acid]",LOD (thermal transitions),"listed as I, first DTA thermal transition",52 °C
same,LOD (thermal transitions),"listed as I, second DTA thermal transition",90 °C

# Reference: patent US8829194B2, “Crystalline forms of the sodium salt of (4-{4-[5-(6-trifluoromethyl-pyridin-3-ylamino)-pyridin-2-yl]-phenyl}-cyclohexyl)-acetic acid” (Novartis AG, priority 2010, dated 2014)
